Screen size: about 370,000 compounds; about 150 (0.041%) were called active. Inconclusive means that the source gave no clear call. Such entries were picked first, then a sample of the others. Calls come from the whole dose curve; as a rule, active = well fitted inhibition curve with a large enough effect; inconclusive = small, poorly fitted or top-dose-only effect; inactive = flat fitted curve, though single readings scatter. Potencies of inconclusive entries are left out as doubtful fits.
molecular target: Beta-lactamase (Escherichia coli (strain K12)) (UniProt P00811); test: qHTS Inhibitors of AmpC Beta-Lactamase (assay with detergent); details: AmpC hydrolysis of nitrocefin, absorbance 480 nm, 0.01% Triton; activity change, negative = inhibition: at 114 µM (top of the series); note: nearly all actives have a fitted effect of over 25% in size;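 for activity change, negative = inhibition: 0% = no-compound wells and -100% = no-enzyme wells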
Chain of UniProt P00811 (P00811 whole entry, looked up): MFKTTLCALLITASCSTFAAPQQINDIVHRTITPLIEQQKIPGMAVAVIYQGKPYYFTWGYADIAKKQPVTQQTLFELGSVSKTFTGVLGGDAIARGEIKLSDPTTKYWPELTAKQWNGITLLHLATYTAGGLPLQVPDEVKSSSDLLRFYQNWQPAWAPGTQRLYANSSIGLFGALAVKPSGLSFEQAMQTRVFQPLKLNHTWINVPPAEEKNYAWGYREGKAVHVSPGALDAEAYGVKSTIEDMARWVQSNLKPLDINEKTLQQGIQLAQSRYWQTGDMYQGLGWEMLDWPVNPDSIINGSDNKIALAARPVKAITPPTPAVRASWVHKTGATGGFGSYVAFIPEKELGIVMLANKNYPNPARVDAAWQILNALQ
How it was run: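 20 mM phosphate pH 7.0 + 0.01% (detergent screen) or 0.0001% Triton X-100; 5.3 nM AmpC reagent; cpd preinc 15 min RT; nitrocefin (800 uM stock) to start; A480 q20 s × 4 min; Activity was normalised to no-enzyme and no-compound control wells.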
Potency is the fitted concentration of half-maximal effect; tags give direction and shape of the fitted curve.

SMILES	Potency	activity change, negative = inhibition
C=CCNc1nc(Cl)nc(NC2CCCCC2)n1	inconclusive [inhibitor, partial curve, poor fit]	–
Cc1c(NC(=O)c2cc(-c3ccc4c(c3)OCO4)on2)c(=O)n(-c2ccccc2)n1C	inconclusive [inhibitor, single point]	–
C=C1CCc2c([nH]c3ccc(OCC(C)C)cc23)C1=O	–	inactive: -12.9%
COc1ccc(-c2nc(CSCC(=O)N3CCN(c4ccccc4)CC3)c(C)o2)cc1	–	inactive: -8.25%
Cc1c(C)c2ccc(OCC(=O)N3CCC(C(=O)O)CC3)cc2oc1=O	inconclusive [inhibitor, partial curve]	–
COc1ccc(C(=O)N2CCNC(=O)C2CC(=O)Nc2ccc(C)cc2)cc1 (stereo not given)	inconclusive [inhibitor, full curve]	–
C=CCn1cc(CN2CCC(C(=O)Nc3cccc(-c4cccc(Cl)c4)c3)CC2)c(C)n1	–	inactive: -9.53%
CC1CCN(C(=O)COc2ccccc2F)CC1	inconclusive [inhibitor, partial curve, poor fit]	–
O=S(=O)(NC1CCCCC1)c1ccc(Br)cc1	inconclusive [inhibitor, full curve, poor fit]	–
Cc1cs/c(=N\N=C2CCCCC2)n1Cc1ccco1	inconclusive [inhibitor, full curve]	–
CC(C)c1ccc(NC(=O)Cn2c(=O)oc3ccccc32)cc1	–	inactive: -1.49%
COC(=O)C1=C(C)N(Cc2ccccc2)C(=NCC(C)C)N[C@H]1c1ccc(Br)cc1	inconclusive [inhibitor, partial curve]	–
COc1ccccc1OCC(=O)NC1CCCCCC1	inconclusive [inhibitor, single point]	–
Cc1cc(C)nc(NC(=O)c2cc(-c3ccc4c(c3)OCO4)nc3ccccc23)c1	–	inactive: 0.0012%
O=C(Nc1c2c(nn1-c1ccccc1)CS(=O)(=O)C2)c1ccc2c(c1)OCO2	inconclusive [inhibitor, partial curve]	–
CCNS(=O)(=O)c1ccc(NS(=O)(=O)c2cc(C)ccc2C)cc1	inconclusive [inhibitor, full curve]	–
Cc1cc(C)c(S(=O)(=O)Nc2ccc3[nH]c(=O)[nH]c3c2)c(C)c1	inconclusive [inhibitor, partial curve, poor fit]	–
CCSc1nnnn1-c1ccccc1	–	inactive: 1.74%
COc1ccccc1CN(C)C(=O)CSc1nnc(C2CC2)n1C1CC1	–	inactive: 5.57%
COc1ccccc1CC(=O)N1CCN(c2cccc(Cl)c2)CC1	inconclusive [inhibitor, full curve]	–

From PubChem BioAssay AID485294 (National Center for Advancing Translational Sciences (NCATS), 2010)
